In the BET-seq Pho4 binding data (Le et al. 2018):
The other results are listed elsewhere or left out. Values were computed here from the reads of four pooled replicates and scatter widely.

Each sequence was assayed against T1, Pho4 (S. cerevisiae) (UniProt P07270) (assay: relative binding free energy (BET-seq); higher = weaker binding). Settings: reference: library average.
T1 sequence: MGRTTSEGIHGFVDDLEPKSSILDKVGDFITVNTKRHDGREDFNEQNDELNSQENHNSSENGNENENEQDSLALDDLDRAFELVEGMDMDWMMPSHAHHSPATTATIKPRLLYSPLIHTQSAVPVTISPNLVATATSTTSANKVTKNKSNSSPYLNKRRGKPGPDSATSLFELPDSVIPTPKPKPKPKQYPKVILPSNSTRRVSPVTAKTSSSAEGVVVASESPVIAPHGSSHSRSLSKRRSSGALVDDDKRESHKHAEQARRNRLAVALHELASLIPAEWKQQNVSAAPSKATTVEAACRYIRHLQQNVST

Sequence	relative binding free energy [kJ/mol]
AGTAGCACGTGTAAAT	0.167
GTAGGCACGTGAGTAA	0.795
GGACTCACGTGGGTTG	-0.0418
TTGCTCACGTGTGGTC	1.21
TGAGGCACGTGGTGCA	-1.21
AGCGGCACGTGAGAGG	1.05
GTGGGCACGTGTGAGC	-0.0418
TAGGTCACGTGACTTA	1
GTACGCACGTGGTTCG	0.251
TATTTCACGTGTGCTA	1.13
GTGTGCACGTGTGTCG	0.0837
GTGAGCACGTGGCGGA	0.0418
GGATACACGTGCGGGT	0.628
AAGTCCACGTGGGGGC	-0.0418
AAGTCCACGTGTTGGT	0.209
TGATGCACGTGTCTGG	-0.628
GCGGGCACGTGGGCAT	-1.09
TTCATCACGTGTGCTT	1.09
TATCGCACGTGGTTTA	-0.293
TGAGTCACGTGAGCTA	1.59
TAATTCACGTGGTGGT	0.962
TTGGGCACGTGCTGAA	-1.17
TTGCTCACGTGTGTAA	1.26
TCGTGCACGTGGCGTG	-0.377
TTCTTCACGTGAGGTC	1.59
TCTATCACGTGTATGG	0.628

Sequence	relative binding free energy [kJ/mol]
TTTTTCACGTGTATTA	1.09
AGGAGCACGTGTATAT	-0.293
TTGGACACGTGGTAGT	0.126
TTTGACACGTGATTGA	0.293
AGTTTCACGTGTGGTG	1.67
GAAGGCACGTGGGAGC	-0.544
GGACGCACGTGTGGGT	0
GAACACACGTGGGGTG	0.0418
TTTCGCACGTGGATTA	-0.0837
GGCAGCACGTGTGGTC	0.418
GGATACACGTGTGCAT	0.711
GTGGTCACGTGGCAGA	0.377
TGTGACACGTGGGCTG	-0.628
TTGGACACGTGTCCTG	0.126
GAGTACACGTGGGTGT	-0.335
AGAAGCACGTGGGAGC	-0.335
AATGTCACGTGGATTT	1.05
CGACTCACGTGGGGTT	0.711
CTTAGCACGTGTGGGT	0.0418
TGGGTCACGTGTACGT	0.209
AGGAGCACGTGTTGAA	-0.251
TATCACACGTGGGATG	0
TGTAGCACGTGGCTGT	-0.837
GAGTTCACGTGGAGAG	0.962
GGTATCACGTGTGGGT	0.837
ATATACACGTGTGGTC	-0.167

Sequence	relative binding free energy [kJ/mol]
AATTGCACGTGTATTA	0.46
TGGGTCACGTGCAAGA	0.167
ACGTGCACGTGATTTG	0.251
TGAGGCACGTGGTTTT	-0.209
ATTTACACGTGGTAAA	0.377
ATATACACGTGTGGGC	0.962
CGTGGCACGTGTCGGA	0.0837
TGAGACACGTGTAAAT	0.879
GCTGGCACGTGTAGGT	0
TATTCCACGTGGGTTG	-0.0837
CGGGTCACGTGAAAGA	1.72
TGGTTCACGTGTACGT	1.3
ATGTGCACGTGAAGCG	0.669
TGATTCACGTGTATCG	0.795
ACTGGCACGTGTGGAA	-0.418
CAATACACGTGGGGGG	0.0837
GCGGGCACGTGTAGGA	-0.209
GGGCACACGTGGGGGA	-0.126
CGCTGCACGTGAGTTG	0.418
GGGGGCACGTGCGAAT	0.209
CGTTCCACGTGTTGGT	0.335
GGCGGCACGTGATTAT	0.544
GCAGTCACGTGTGGGT	0.586
TAATACACGTGTTAGT	-0.628
ATTTGCACGTGGTTTT	0
GATCGCACGTGATTGT	1.05

Sequence	relative binding free energy [kJ/mol]
GGGTACACGTGCACGT	0.711
AGGGCCACGTGAGTGA	0.0837
TATGTCACGTGTTGTC	0.711
TTCTTCACGTGTTAAT	1.42
TGTGTCACGTGTTCGC	0.46
GGCGTCACGTGTGGTT	0.962
GGGGGCACGTGTGTCG	-0.628
AGGGGCACGTGACCTG	-0.0418
CATTTCACGTGGAATG	1.34
AGCAGCACGTGGTAGG	-1.09
TTCGGCACGTGCGGGA	-1.09
GAGGGCACGTGTGAGT	-0.0418
ATTCGCACGTGAAGTT	0.879
TTTCTCACGTGTTAAT	1.34
GAGTGCACGTGTCGGG	0.544
AGAAACACGTGTGTAT	0.126
GAAGGCACGTGTTAGG	-0.335
TGGTGCACGTGTATAT	-0.126
GAGGGCACGTGTAGAT	1.21
TAAGTCACGTGGTTTA	0.711
GTGTACACGTGCGGAA	0.293
TTGGCCACGTGGGTAG	-0.544
AGCTTCACGTGAGGGA	1.38
GGGTGCACGTGATGCT	1
TGGTTCACGTGGTCAT	0.879
ATGTTCACGTGTTCGA	1.13

Sequence	relative binding free energy [kJ/mol]
TCTGTCACGTGGGGCT	-0.46
AGGTGCACGTGGTAGC	-0.251
TGGTTCACGTGTCAGT	1.84
GGTCGCACGTGTAGGT	-0.335
GAGGTCACGTGAAGAT	1.3
TGTATCACGTGCTGAG	0.209
GTTTGCACGTGTGTGT	0.502
GGAATCACGTGGTAAG	0.544
GCTAGCACGTGTGGGA	0.251
TAATACACGTGGGTTA	-0.0418
GATGTCACGTGTGATA	1.26
CGCTGCACGTGGTGTA	-0.711
AGTAACACGTGTTGTC	0.377
ATCAGCACGTGGTTGG	-0.377
TATATCACGTGTGGCT	0.586
TTTATCACGTGGCTTT	0.251
TATGCCACGTGGTTAG	-0.795
GGATGCACGTGGAATT	0.335
ATTTGCACGTGGGACG	0.126
GGTATCACGTGCTGAG	0.711
AAATTCACGTGGAAGT	1.8
TGGTCCACGTGGGTTA	-0.0837
GCTTCCACGTGGGGTG	-0.209
CTTGTCACGTGGCTGT	-0.126
AGATACACGTGTAGGG	0.251
GTGGACACGTGACGGA	0.92

Sequence	relative binding free energy [kJ/mol]
TAGGTCACGTGTAAGT	0.711
ATTACCACGTGAGGGG	0.293
ATTGGCACGTGTTATC	-0.418
AGCGACACGTGGGGGG	-0.335
GATCGCACGTGAAGGT	0.711
TTCGACACGTGTTGTT	0.209
TGGATCACGTGAGGAT	1.34
TTGTGCACGTGGGCGG	-0.586
TGGCACACGTGATGTG	-0.126
GTGTCCACGTGTGGTT	0.377
TTATTCACGTGCAATT	1.46
GTTTGCACGTGGGTCC	-0.126
TTGTGCACGTGATCGA	0.209
ATTTGCACGTGTTTTA	0.251
GTTAGCACGTGGTGAG	0.0837
TGGGTCACGTGCATAT	0.628
TGTTTCACGTGATATC	1.05
GGTGTCACGTGTACAT	0.962
AGTGTCACGTGTGCGA	0.0837
TGTGGCACGTGACTCG	0.251
TGAGGCACGTGTAGAT	0.879
GTGAGCACGTGTTCTG	-0.293
TACGGCACGTGTGGTC	0.0837
CTAGTCACGTGTGTGA	0.962
GTTTACACGTGTAGCG	0.879
GTCAACACGTGTTAGG	0.209

Sequence	relative binding free energy [kJ/mol]
CGATTCACGTGAAGGG	1.88
GGCTTCACGTGGGCAG	0.377
CGTAACACGTGGTCGG	-0.46
TGGTTCACGTGAGGAC	1.84
TTTGGCACGTGGGGCT	-0.544
ATGGGCACGTGATGAA	0.544
GGGCGCACGTGGTACG	-0.335
TCAGGCACGTGTTGAT	-0.0837
CGTGGCACGTGGATGG	-0.335
CGATGCACGTGGGCTG	-0.502
TGGGGCACGTGAATTT	1.17
TAGAACACGTGAGTAT	1.38
TGCTGCACGTGGGGAT	-0.669
TTTGTCACGTGGGTTT	0.335
CGAAGCACGTGGTTTT	0.209
TCTGGCACGTGTTGTA	-0.669
TCTTTCACGTGTCTTT	0.879
TTGAACACGTGGTATA	0.126
GAGAGCACGTGGAGTG	0.46
AGAGTCACGTGGTGTA	-0.0837
ATTCGCACGTGTTGTA	0
AGTGTCACGTGTGACT	0.293
TGGGACACGTGCGGTG	-0.502
AGTCACACGTGGGATG	-0.209
TTTACCACGTGTTGGT	-0.0837
GGGGGCACGTGGAGCC	-0.795

Sequence	relative binding free energy [kJ/mol]
GATTTCACGTGGAAGT	1.97
ATAAGCACGTGGGTAT	-1.09
TAAAACACGTGGGGGT	-0.795
AGTGGCACGTGTAGCG	-0.167
TGTTTCACGTGGGATT	0.962
TATTACACGTGTCTTG	0.167
GTTGACACGTGTTTGG	0.377
GGAGACACGTGGATGT	0.0418
TTCTGCACGTGGATGT	-0.126
ATGTTCACGTGCTAGG	0.753
TGGTACACGTGGATGA	0.167
ATTTGCACGTGGGTCA	-0.46
TATTGCACGTGGCTGA	-0.586
AGGGTCACGTGTGGTG	0.628
CGGGCCACGTGGTTGG	-0.46
TAAGGCACGTGGTCAT	-0.753
TGTGGCACGTGACTGG	-0.167
CTAGTCACGTGTCGGG	0.418
GTAGACACGTGGGCTT	-1
GTGCGCACGTGCGAGG	-0.293
CGGTACACGTGGAAGT	0.544
GTATTCACGTGGTATG	1.09
AGTGGCACGTGTATAA	-0.837
AAGTACACGTGGTATA	-0.167
GAGAGCACGTGTGGGT	-0.209
CATAACACGTGGGGTG	-0.753

Sequence	relative binding free energy [kJ/mol]
GTCTGCACGTGTCGGT	0.711
TGTCTCACGTGTGGGT	0.962
GAAATCACGTGGGGTG	0.544
GTTATCACGTGCTAGG	0.0418
AATCACACGTGTATGG	0.46
TCGCGCACGTGTGTTT	0.0837
ATGGACACGTGGATTA	0.502
ATTTTCACGTGTAATA	0.962
TGTTGCACGTGTAGGG	-0.0418
CGCAGCACGTGAGGGA	1
GGTTACACGTGATGTT	1.13
ATGTCCACGTGGTCGG	-0.628
ATAAGCACGTGTAAGG	-0.126
GGACTCACGTGGGGAT	0.418
TTGTTCACGTGACAGT	1.76
AGGTTCACGTGTCAAT	0.92
TCAGGCACGTGGGCAT	-0.879
TAATTCACGTGGATGG	0.795
ATTACCACGTGTAGGT	0.628
AGGTTCACGTGATAGA	1.51
GGAGTCACGTGTTAAA	0.962
CTTATCACGTGTGTGC	0.251
